Laboratory results from PubChem BioAssay (Tox21).
“And” between values parts separate entries of the source, which are not always exact repeats. Identical values can stand only once. Inconclusive means that the source gave no clear call. Such entries were picked first, then a sample of the others. Where a call stands in place of a potency, no number is given. For some of these results: A potency beside an inconclusive call is a rough fit, not a confirmed value. The source made the active and inactive calls. Unless noted, calls follow the shape of the dose curve; as a rule, active = well fitted curve in the direction sought with a large enough effect in the repeat runs; inconclusive = weak or mixed curves; inactive = no such curve, though single readings can be large; an effect the other way counts as inactive or inconclusive.

Legend:
[1] = qHTS assay to identify small molecule agonists of the farnesoid-X-receptor (FXR) signaling pathway - cell viability counter screen (AID 743218); conditions: FXR-bla HEK293T viability, CellTiter-Glo luminescence, 16 h; viability change, negative = cytotoxic: at 62.6 µM (top of the series) unless noted; also: nearly all actives have a fitted effect of over 45% in size; also: potency is read from the fitted curve at half-maximal effect
Summary of the method: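 Quantitative HTS counter screen measuring ATP-based viability via CellTiter-Glo luminescence in HEK 293T cells carrying a UAS-driven beta-lactamase reporter, after 16 h compound exposure at 37 C.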

[2] = biological target: Bile acid receptor (Homo sapiens) (UniProt Q96RI1); experiment: qHTS assay to identify small molecule agonists of the farnesoid-X-receptor (FXR) signaling pathway (AID 743220; active = well fitted activation curve with a large enough effect in the signal ratio in the repeat runs, not every such curve was filed as active; inconclusive = weak or mixed curves, or effect the other way; the % refers to the signal ratio; also: potency is read from the fitted curve at half-maximal effect); conditions: HEK293T FXR-UAS-bla, beta-lactamase FRET ratio, 16 h; activation: at 62.6 µM (top of the series)
Summary of the method: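 FXR-UAS-bla HEK 293T cells carrying a UAS-driven beta-lactamase reporter were plated for 5 h at 37C/5% CO2, then exposed to DMSO-dissolved Tox21 10K compounds for 16 h at 37C. A LiveBLAzer B/G FRET substrate was loaded for 2 h at room temperature before fluorescence reading.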

[3] = biological target: Nuclear receptor ROR-gamma (Homo sapiens) (UniProt P51449); experiment: qHTS assay to identify small molecule antagonists of the retinoid-related orphan receptor gamma (ROR-gamma) signaling pathway (AID 1159521; also: nearly all actives have a fitted effect of over 50% in size; also: potency is read from the fitted curve at half-maximal effect;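 as to activity change, negative = inhibition: CHO cells with doxycycline inducible ROR-gamma driving an RORE luciferase reporter; top concentration of the series differs between compounds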)
Summary of the method: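 Cells were plated, rested 4 h at 37 C, exposed to compounds for 2 h, then given 1 uM final doxycycline hyclate to induce RORγ expression. After 16 h, ONE-Glo luminescence from the ROR response element reporter was measured.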

[4] = biological target: Bile acid receptor (Homo sapiens) (UniProt Q96RI1); experiment: qHTS assay to identify small molecule antagonists of the farnesoid-X-receptor (FXR) signaling pathway (AID 743217; active = well fitted inhibition curve with a large enough effect in the signal ratio in the repeat runs, not every such curve was filed as active; inconclusive = weak or mixed curves, or effect the other way; inactive = no such curve, though single readings can be large or run the other way; the % refers to the signal ratio; also: potency is read from the fitted curve at half-maximal effect); conditions: HEK293T FXR-UAS-bla, beta-lactamase ratio, CDCA-stimulated, 16 h; activity change, negative = inhibition: at 62.6 µM (top of the series) unless noted
Summary of the method: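 Test compounds are pin-transferred onto FXR-bla HEK 293T cells, then chenodeoxycholic acid is added at 50 uM final. After 16 h at 37 °C, LiveBLAzer B/G substrate is applied for 2 h at room temperature and fluorescence read.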

[5] = biological target: Vitamin D3 receptor (Homo sapiens) (UniProt P11473); experiment: qHTS assay to identify small molecule agonists of the vitamin D receptor (VDR) signaling pathway (AID 743222; calls by dose curve); conditions: HEK293T VDR-UAS-bla, beta-lactamase FRET ratio, 16 h; activation: at 63.5 µM (top of the series) unless noted
Summary of the method: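 Tox21 cell reporter format: VDR-bla line, 16 h compound exposure in 5% CO2 at 37C, then fluorescence intensity after 2 h with LiveBLAzer B/G FRET substrate.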

[6] = qHTS assay to identify small molecule agonists of the vitamin D receptor (VDR) signaling pathway - cell viability counter screen (AID 743224); conditions: VDR-bla HEK293T viability, CellTiter-Glo luminescence, 16 h; activity change, negative = cytotoxicity: at 62.6 µM (top of the series); also: nearly all actives have a fitted effect of over 50% in size; also: potency is read from the fitted curve at half-maximal effect
Summary of the method: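 CellTiter-Glo viability readout on VDR-bla cells, measured after 16 h of compound treatment at 37C in the same wells.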

[7] = qHTS assay to identify small molecule antagonists of the farnesoid-X-receptor (FXR) signaling pathway - cell viability counter screen (AID 743221; active = well fitted cell-killing curve with a large enough effect in the repeat runs, not every such curve was filed as active; inconclusive = weak or mixed curves, or effect the other way; inactive = no such curve, though single readings can be large or run the other way; also: nearly all actives have a fitted effect of over 50% in size); conditions: FXR-bla HEK293T viability, CellTiter-Glo luminescence, 16 h; activity change, negative = cytotoxicity: at 62.6 µM (top of the series) unless noted
Summary of the method: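 Multiplexed counter screen: viability of FXR-bla HEK 293T cells under agonist stimulation by chenodeoxycholic acid (50 uM, final) and test compound for 16 h at 37 C, measured by CellTiter-Glo luminescence in the reporter wells.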

[8] = biological target: Vitamin D3 receptor (Homo sapiens) (UniProt P11473); experiment: qHTS assay to identify small molecule antagonists of the vitamin D receptor (VDR) signaling pathway (AID 743223; active = well fitted inhibition curve with a large enough effect in the signal ratio in the repeat runs, not every such curve was filed as active; inconclusive = weak or mixed curves, or effect the other way; inactive = no such curve, though single readings can be large or run the other way; the % refers to the signal ratio); conditions: VDR-UAS-bla HEK293T, beta-lactamase FRET ratio, 16 h; activity change, negative = inhibition: at 61 µM (top of the series) unless noted
Summary of the method: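 Cells carrying a VDR-driven beta-lactamase reporter (VDR-bla) were co-treated with compound and 3 nM final 1alpha,25-dihydroxyvitamin D3 for 16 h at 37C; reporter activity was measured as FRET substrate fluorescence after 2 h at room temperature.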

[9] = qHTS assay to identify small molecule antagonists of the vitamin D receptor (VDR) signaling pathway - cell viability counter screen (AID 743225); conditions: VDR-bla HEK293T viability, CellTiter-Glo luminescence, 16 h; viability change, negative = cytotoxic: at 61 µM (top of the series) unless noted; also: nearly all actives have a fitted effect of over 50% in size; also: potency is read from the fitted curve at half-maximal effect
Summary of the method: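 HEK293T VDR-bla; cpd + 1a,25-(OH)2D3 3 nM final, 16 h 37C/5% CO2; B/G FRET substrate 2 h RT; then CellTiter-Glo 30 min RT, luminescence.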

[10] = biological target: Peroxisome proliferator-activated receptor delta (Homo sapiens) (UniProt Q03181); experiment: qHTS assay to identify small molecule antagonists of the peroxisome proliferator-activated receptor delta (PPARd) signaling pathway (AID 743215; active = well fitted inhibition curve with a large enough effect in the signal ratio in the repeat runs, not every such curve was filed as active; inconclusive = weak or mixed curves, or effect the other way; inactive = no such curve, though single readings can be large or run the other way; the % refers to the signal ratio;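 also: cells stimulated with agonist L165041 at 300 nM final during compound exposure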); conditions: HEK293H PPARd-UAS-bla, beta-lactamase FRET ratio, antagonist, 17 h; ratio activity, negative = inhibition: at 62 µM (top of the series) unless noted
Summary of the method: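 Here, a reporter line (HEK293H, beta-lactamase under a UAS) measures PPARd signaling. Compounds are tested against agonist L165041 at 300 nM final concentration over 17 h at 37 C, with fluorescence read after substrate.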

[11] = qHTS assay to identify small molecule antagonists of the peroxisome proliferator-activated receptor delta (PPARd) signaling pathway - cell viability counter screen (AID 743213); conditions: PPARd-bla HEK293H viability, CellTiter-Glo luminescence, 17 h; viability change, negative = cytotoxic: at 62 µM (top of the series) unless noted; also: nearly all actives have a fitted effect of over 50% in size; also: potency is read from the fitted curve at half-maximal effect
Summary of the method: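 Viability counter-screen, qHTS format: PPARd-bla HEK293H, L165041 300 nM final, 17 h compound exposure at 37 C, CellTiter-Glo luminescence after 30 min RT.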
Tags tell the direction and shape of the fitted curve or compound fluorescence and quenching.

Sequence of UniProt Q96RI1 (Q96RI1 whole entry, looked up): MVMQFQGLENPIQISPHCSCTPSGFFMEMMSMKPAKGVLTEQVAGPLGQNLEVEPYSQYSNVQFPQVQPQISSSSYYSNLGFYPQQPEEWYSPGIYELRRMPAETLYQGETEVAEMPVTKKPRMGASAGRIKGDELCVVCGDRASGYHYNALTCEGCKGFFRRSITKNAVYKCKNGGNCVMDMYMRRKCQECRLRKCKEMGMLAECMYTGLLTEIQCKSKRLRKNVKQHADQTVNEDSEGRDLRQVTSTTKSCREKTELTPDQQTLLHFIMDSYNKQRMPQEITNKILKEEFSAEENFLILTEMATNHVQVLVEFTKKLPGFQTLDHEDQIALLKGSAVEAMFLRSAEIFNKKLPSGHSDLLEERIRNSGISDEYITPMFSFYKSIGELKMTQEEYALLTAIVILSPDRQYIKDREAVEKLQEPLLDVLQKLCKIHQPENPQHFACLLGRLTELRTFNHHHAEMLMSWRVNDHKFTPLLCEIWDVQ
Sequence of UniProt Q03181 (Q03181 whole entry, looked up): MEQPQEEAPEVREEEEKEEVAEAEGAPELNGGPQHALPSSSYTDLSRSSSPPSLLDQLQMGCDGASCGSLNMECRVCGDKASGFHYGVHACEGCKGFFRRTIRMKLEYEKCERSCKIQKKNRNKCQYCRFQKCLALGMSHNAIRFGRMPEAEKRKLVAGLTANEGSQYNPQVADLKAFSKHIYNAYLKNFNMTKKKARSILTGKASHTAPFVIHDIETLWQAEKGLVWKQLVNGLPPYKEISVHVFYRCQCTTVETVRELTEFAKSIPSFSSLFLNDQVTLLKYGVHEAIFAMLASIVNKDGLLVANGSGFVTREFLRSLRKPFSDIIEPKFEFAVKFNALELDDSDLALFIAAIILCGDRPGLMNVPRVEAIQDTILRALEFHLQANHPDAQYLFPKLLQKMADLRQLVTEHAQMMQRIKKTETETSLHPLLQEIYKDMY
Sequence of UniProt P11473 (P11473 whole entry, looked up): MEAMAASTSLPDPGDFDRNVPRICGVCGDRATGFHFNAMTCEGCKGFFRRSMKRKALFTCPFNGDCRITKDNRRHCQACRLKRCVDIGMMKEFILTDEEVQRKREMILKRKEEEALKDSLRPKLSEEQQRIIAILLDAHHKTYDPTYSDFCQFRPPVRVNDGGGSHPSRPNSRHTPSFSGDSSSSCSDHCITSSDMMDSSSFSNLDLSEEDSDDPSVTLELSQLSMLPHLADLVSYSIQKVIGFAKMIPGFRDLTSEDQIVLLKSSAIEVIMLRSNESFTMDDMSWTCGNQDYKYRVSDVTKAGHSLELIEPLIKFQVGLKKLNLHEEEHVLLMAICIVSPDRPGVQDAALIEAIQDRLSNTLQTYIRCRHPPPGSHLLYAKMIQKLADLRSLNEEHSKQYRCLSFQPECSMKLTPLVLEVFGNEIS

## COc1c(N2CCNC(C)C2)c(F)cc2c(=O)c(C(=O)O)cn(C3CC3)c12 (configuration not stated)
[1]
  Potency: inconclusive: 18.8 µM [rising, partial curve, poor fit]
[2]
  Potency: inconclusive: 29.8 µM [falling, partial curve, poor fit]
[3]
  Potency: inactive

## O=C1CC2(CCCC2)CC(=O)N1CCNCC1COc2ccccc2O1 (configuration not stated)
[4]
  Potency: inactive
[3]
  Potency: inactive

## CC12CCC(CC1=O)C2(C)C (configuration not stated)
[1]
  Potency: inconclusive: 0.0191 µM [cytotoxic, full curve, poor fit]
[5]
  Potency: inactive
[6]
  Potency: inactive
[3]
  Potency: inactive

## COC(=O)c1ccc(I)cc1S(=O)(=O)NC(=O)Nc1nc(C)nc(OC)n1
[1]
  Potency: inactive
[7]
  Potency: inactive
[3]
  Potency: inconclusive: 0.0928 µM [inhibitor, single point]

## COc1cc(C)ccc1C(C)C
[1]
  Potency: inactive
[3]
  Potency: inconclusive: 6.86 µM [inhibitor, single point]

## O=[N+]([O-])c1ccc(Oc2ccc([N+](=O)[O-])cc2)cc1
[4]
  Potency: inactive
[1]
  viability change, negative = cytotoxic: inconclusive: 41.6% [at 81.1 µM]
[8]
  Potency: inactive
[6]
  Potency: inactive
[9]
  Potency: inconclusive: 12.6 µM [cytotoxic, single point]
[3]
  Potency: inactive

## CCOC(=O)CC(=O)C(=O)OCC
[10]
  ratio activity, negative = inhibition: inconclusive: 22.9%
[5]
  Potency: inactive
[8]
  activity change, negative = inhibition: inconclusive: 22.1%
[9]
  Potency: inconclusive: 21.9 µM [cytotoxic, single point]
[3]
  Potency: inconclusive: 38.6 µM [inhibitor, partial curve, poor fit]

## CCOC(=O)CCC(C)=O
[4]
  Potency: inactive
[8]
  Potency: inactive
[3]
  Potency: inactive

## CCC(C)O (configuration not stated)
[11]
  Potency: inactive
[8]
  activity change, negative = inhibition: inconclusive: 8.07% [at 78.8 µM]
[9]
  Potency: inactive
[3]
  Potency: inconclusive: 1.11 µM [inhibitor, single point]

## CC(C)(C)Cl
[4]
  Potency: inactive
[3]
  Potency: inconclusive: 0.0288 µM [inhibitor, full curve, poor fit]

## CC(=O)Nc1ccc(C)c(Cl)c1
[11]
  Potency: inconclusive: 3.89 µM [cytotoxic, full curve, poor fit]
[10]
  Potency: inactive
[1]
  Potency: inconclusive: 0.0776 µM [rising, partial curve, poor fit]
[7]
  Potency: inactive
[8]
  Potency: inactive
[3]
  Potency: inconclusive: 43.3 µM [inhibitor, partial curve, poor fit]

## O=C(O)c1ccc(CO)o1
[10]
  Potency: inactive
[8]
  activity change, negative = inhibition: inconclusive: 31.3% [activator] [at 78.8 µM]
[9]
  Potency: inactive
[3]
  Potency: inconclusive: 0.197 µM [inhibitor, single point]

## CCOc1cccc(N)c1
[1]
  Potency: inactive
[8]
  Potency: inactive
[3]
  Potency: inactive

## COc1ccc([C@@H]2Sc3ccccc3NC(=O)[C@@H]2O)cc1
[11]
  Potency: inconclusive: 0.211 µM [cytotoxic, full curve, poor fit]
[4]
  Potency: inconclusive: 13.3 µM [rising, full curve, poor fit]
[1]
  Potency: inactive
[8]
  activity change, negative = inhibition: inconclusive: -30.8%
[3]
  Potency: inconclusive: 13.3 µM [inhibitor, single point]

## Cc1ccc(=O)n(-c2ccccc2)c1
[11]
  Potency: inactive
[7]
  Potency: inactive
[3]
  Potency: inactive

## CCCCC(CC)CCC(CC(C)C)OS(=O)(=O)O (configuration not stated)
[4]
  Potency: inactive
[9]
  Potency: inactive
[3]
  Potency: inactive

## OC[C@@H](O)[C@H](O)[C@@H](O)[C@@H](O)CO
[11]
  Potency: inactive
[8]
  activity change, negative = inhibition: inconclusive: 32.3% [activator]
[3]
  Potency: inactive

## CCCCCCCN
[10]
  ratio activity, negative = inhibition: inconclusive: 16.5% [at 80.4 µM]
[4]
  activity change, negative = inhibition: inconclusive: 1.83% [at 81.1 µM]
[1]
  Potency: inactive
[3]
  Potency: inconclusive: 6.99 µM [inhibitor, single point]

## CCCCCCCCCCCCCCCC(=O)OC(C)C
[10]
  Potency: inactive
[8]
  activity change, negative = inhibition: inconclusive: 15.5%
[6]
  Potency: inactive and inconclusive: 1.19 µM [cytotoxic, single point]
[3]
  Potency: inactive

## CC(C)=CCC/C(C)=C\C#N
[4]
  activity change, negative = inhibition: inconclusive: 5.25%
[3]
  Potency: inactive

## Cc1ccc(C#N)cc1
[10]
  Potency: inactive
[8]
  activity change, negative = inhibition: inconclusive: 1.05%
[3]
  Potency: inactive

## O=S(=O)(Oc1ccc(Cl)cc1)c1ccccc1
[11]
  Potency: inactive
[4]
  Potency: inactive
[8]
  activity change, negative = inhibition: inconclusive: 25.2%
[3]
  Potency: inconclusive: 2.43 µM [inhibitor, single point]

## CC(C)(C#N)Nc1nc(Cl)nc(NC2CC2)n1
[10]
  Potency: inactive
[8]
  activity change, negative = inhibition: inconclusive: -13.4%
[6]
  Potency: inactive
[3]
  Potency: inactive
